In a collection of fitness landscapes (doi:10.1016/j.celrep.2020.107928):
Over roughly 81,000 sequences, “one-hybrid fitness for binding NBS DNA” has its median near -0.1; the highest 2% begin near 0.36. This is one part of the list.

B1: Caulobacter ParB omega fusion; a variant is named by its letters at X, in order, B8GW30 (parent)
chain: MESVVVGEPGMSEGRRGLGRGLSALLGEVDAAPAQAPGEQLGGSREAPIEILQRNPDQPRRTFREEDLEDLSNSIREKGVLQPILVRPSPDTAGEYQIVAGERAWRAAQRAGLKTVPIMVRELDDLAVLEIGIIENVQRADLNVLEEALSYKVLMEKFERTQENIAQTIGKSXSHVANXMRLLXLPDEVQSYLVSGELTAXHARAIAAAADPVALAKQIIEGGLSVRETEALARKAPNLSAGKSKGGRPPRVKDTDTQALESDLSSVLGLDVSIDHRGSTGTLTITYATLEQLDDLCNRLTRGI

Variants of: B1
Experiment: one-hybrid fitness for binding NBS DNA (the Noc-binding site; scaled: cognate 1, non-cognate 0); higher = stronger binding
Settings: with NBS DNA site
Method in brief: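 Bacterial one-hybrid selection in E. coli USO rpoZ- hisB- pyrF- with a HIS3 reporter carrying the site 19 bp from the promoter, screening Caulobacter ParB libraries with four specificity codons randomised (NNS). Cells grew 48 hours at 37°C on M9-minus-histidine plus 0.1 mM IPTG and 5 mM 3-AT. Plasmids before and after selection were Illumina-sequenced, three replicate libraries pooled, and variants under 10 reads dropped. Fitness is the log change in variant-to-wild-type read ratio, rescaled to cognate 1, non-cognate 0.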

one-hybrid fitness for binding NBS DNA, 0.266:
KRKQ

one-hybrid fitness for binding NBS DNA, 0.396:
QRSK

one-hybrid fitness for binding NBS DNA, 0.557:
KRGR

one-hybrid fitness for binding NBS DNA, 0.461:
RVHS

one-hybrid fitness for binding NBS DNA, 0.57:
QRTH

one-hybrid fitness for binding NBS DNA, 0.338:
QSRI

one-hybrid fitness for binding NBS DNA, 0.293:
RSVR

one-hybrid fitness for binding NBS DNA, 0.586:
RCHR

one-hybrid fitness for binding NBS DNA, 0.341:
RKNA

one-hybrid fitness for binding NBS DNA, 0.254:
TRRY

one-hybrid fitness for binding NBS DNA, 0.215:
QFER

one-hybrid fitness for binding NBS DNA, 0.345:
QHKG

one-hybrid fitness for binding NBS DNA, 0.221:
RNAR

one-hybrid fitness for binding NBS DNA, 0.55:
QMQR

one-hybrid fitness for binding NBS DNA, 0.808:
RRRH

one-hybrid fitness for binding NBS DNA, 0.208:
QQSH

one-hybrid fitness for binding NBS DNA, 0.429:
QRTN

one-hybrid fitness for binding NBS DNA, 0.273:
QKVM

one-hybrid fitness for binding NBS DNA, 0.36:
RRGY

one-hybrid fitness for binding NBS DNA, 0.414:
KYKR

one-hybrid fitness for binding NBS DNA, ≤ 0.2:
GLEV
TNHC
TAGS
TRLG
ICAT
SGAD
GKSS
RQEL
VHRV
HSRL
NNTH
AKAG
EGFR
CAQS
IGRG
VSFS
LELV
NNYT
MRWS
MSLG
RMAG
FVNL
PTSQ
RDEV
YGYL
DTPA
NTDY
FRDI
KQQV
LGLT
LPWG
DINW
SRYG
LHAV
HYCG
EKGS
CPCR
PAKW
YKAA
QISY
QCSN
PQTP
GQTS
NWSC
SSPV
RYKP
GLSR
PIAQ
NSCR
LHRL
QAEI
EFPY
WERL
QTGE
KLYW
IWKR
NYSQ
GPMW
WFAY
TAPG
SFAC
QFAW
SEMT
HCHT
PVNF
IIRR
QVDY
HTSW
TARL
RFSG
EVWI
MKYS
ERGS
RHLY
MGKP
EGLR
YYND
MENT
LYKT
QCED
NEVR
GDTS
HVGG
RKQQ
IMGG
WSNG
TWAL
GDEL
RVKE
TTNT
KHGY
YLFW
RVGN
AYVS
SRKD
IISN
PCHV
AAQF
RACW
NLRI
PSLS
PMRW
EAYS
FVHN
IAKG
KVLL
CVET
QFAE
TMHC
ELEL
LINT
RYGL
HAPI
KEIA
SLSW
VFKS
HPCK
AVNH
QVMS
DTTC
TPFR
HGAG
VLHT
TAQP
SADW
KIAC
DPTA
PWGT
EVFT
IPHG
HAFN
NTHS
SVSS
NVND
YMQT
RNCD
QLLI
LRCW
VDHR
GNTQ
HDKR
RLHP
HVVE
DNRT
TGGR
TIWG
HQSR
SKPM
VTMW
YSVV
KCSD
HRHS
TGID
MGLM
HQLL
DPAM
HEHR
RLLM
TLFV
SINQ
DNQE
ILTM
TRYM
QAHC
APHC
FQDG
RSSD
CGTN
VATK
HISM
NVTM
VNRM
PGCR
LYKH
LPVS
IVEA
KRWG
QSVF
RSMD
HQYT
EATE
WWTD
WLQR
VRKF
TPTD
IAIS
PHYS
KPSF
WIGT
TRHN
PMDY
GYSA
TNDH
LYPR
LRCL
KRKD
PDPK
KQEY
YFNT
MNTW
GMGS
ICRL
IIPF
KSAR
HPMP
KWIR
KMHG
HFLY
VFTI
STYG
CRRH
TCPK
IWDS
HRVA
AGYL
HVPD
VHLW
ADRT
LYRA
DYHG
IKVS
HTMC
HYKE
DSNC
IGIL
QSTI
VFKV
TMPL
IYKV
KTRA
GLAT
HQPQ
RKRL
RFAW
PVFT
AFRY
SVWP
PMTN
SDGT
FLES
YINC
NHVS
QPTW
NRNR
PLLI
MIVS
ATDT
PRND
TRQP
YIVY
PCAL
QLAG
PQVP
CREG
RDTA
HRCR
RFPW
RICV
GMVM
AKGG
IPGC
NQLS
LKRM
KPLI
NTPH
TKRA
VDIA
DNSS
TVRW
HKDS
VIPV
AQDK
MWHR
KSNG
NPLW
SDLV
EQEG
YDLA
WLYR
AYYR
PVHM
PDMV
LYTA
PQIC
CPTM
EART
